Measurements: PubChem BioAssay AID485290 (National Center for Advancing Translational Sciences (NCATS), 2010)
Hit rate of the full screen: of about 350,000 compounds, about 990 (0.28%) were called active. Inconclusive means that the source gave no clear call. Such entries were picked first, then a sample of the others. The call rests on the fitted dose curve; in most records, active means well fitted inhibition curve with a large enough effect; inconclusive means small, poorly fitted or top-dose-only effect; inactive means no such curve, though single readings can be large or run the other way. Potencies beside an inconclusive call are fits to weak or partial responses and may not hold up.

target: Tyrosyl-DNA phosphodiesterase 1 (Homo sapiens) (UniProt Q9NUW8); assay: qHTS Assay for Inhibitors of Tyrosyl-DNA Phosphodiesterase (TDP1); details: recombinant TDP1, AlphaScreen DNA substrate cleavage; activity change, negative = inhibition: at 130 µM (top of the series) unless noted; further: nearly all actives have a fitted effect of over 40% in size
In short: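 AlphaScreen read-out: signal falls as enzyme removes the 3' tyrosine-FITC from a 5'-biotinylated DNA oligo (15 nM, 5 min, RT). Enzyme was E. coli-made recombinant Tdp1 at 1 nM, exposed to compound for 15 min beforehand; beads 10 ug/ml, 10 min.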
On the % scale 0 is the no-effect control and ±100 the full control effect; potency means the concentration at half of the fitted maximal effect; tags describe the fitted curve by direction and shape.

Chain of UniProt Q9NUW8 (Q9NUW8 whole entry, looked up): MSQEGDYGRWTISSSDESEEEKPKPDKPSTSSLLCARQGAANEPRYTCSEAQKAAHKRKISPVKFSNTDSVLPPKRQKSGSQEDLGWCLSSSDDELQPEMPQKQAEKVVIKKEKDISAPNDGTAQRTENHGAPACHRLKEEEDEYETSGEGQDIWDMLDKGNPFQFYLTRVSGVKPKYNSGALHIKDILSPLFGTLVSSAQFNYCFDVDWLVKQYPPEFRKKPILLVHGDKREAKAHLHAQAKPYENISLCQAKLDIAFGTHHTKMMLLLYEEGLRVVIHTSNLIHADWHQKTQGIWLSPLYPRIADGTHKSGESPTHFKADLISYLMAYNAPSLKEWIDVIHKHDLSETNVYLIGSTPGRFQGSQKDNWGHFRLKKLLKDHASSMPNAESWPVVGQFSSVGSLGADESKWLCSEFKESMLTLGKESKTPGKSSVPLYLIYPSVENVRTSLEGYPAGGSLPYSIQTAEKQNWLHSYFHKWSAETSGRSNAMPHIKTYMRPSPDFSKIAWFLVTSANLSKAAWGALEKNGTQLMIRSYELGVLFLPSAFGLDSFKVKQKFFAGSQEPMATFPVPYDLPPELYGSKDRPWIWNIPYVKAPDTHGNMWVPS

| SMILES | Potency | activity change, negative = inhibition |
| --- | --- | --- |
| CCCCSC1=N/C(=C/c2ccsc2)C(=O)N1c1ccccc1 | inconclusive: 15.8 µM [inhibitor, partial curve, poor fit] |  |
| COC(=O)C1=C(C(=O)OC)C(c2ccc(OC)c(OC)c2)c2sc(=O)[nH]c2S1 (configuration not stated) |  | inactive: 5.26% |
| C[C@@H]1C(c2ccc(F)cc2)=NN(c2ccc(Br)cc2)[C@H]1C(=O)N1CCOC1=O | inconclusive: 20 µM [inhibitor, partial curve] |  |
| COc1ccc(S(=O)(=O)NCCC(=O)NC2CCCCC2C)cc1[N+](=O)[O-] (configuration not stated) | active: 17.8 µM |  |
| COc1cccc2sc3cc(C#Cc4ccccn4)ccc3c(=O)c12 | active: 44.7 µM |  |
| COc1cc2nc(NC(=O)c3ccco3)sc(=O)c2cc1OC | inconclusive: 50.1 µM [inhibitor, partial curve] |  |
| O=C(Nc1nc2nccc(-c3ccccc3)n2n1)c1ccccc1 | active: 79.4 µM |  |
| COC(=O)c1ccc(C(=S)NCC2(N(C)C)CCCCC2)cc1 |  | inactive: 7.66% |
| Cc1ccccc1-c1cncnc1N(C)Cc1ccco1 | active: 22.4 µM |  |
| Cc1ccc(C(=O)COc2ccccc2-c2ccccc2)cc1 | inconclusive: 10 µM [inhibitor, partial curve] |  |
| C=CC1=C(C)C2=Cc3c(C=C)c(C)c4[n]3[Sn+2][n]3c(c(C)c(CCC(=O)O)c3=CC3=NC(=C4)C(C)=C3CCC(=O)O)=CC1=N2 | inconclusive: 1.58 µM [inhibitor, full curve] |  |
| O=C(COc1ccc(Cl)cc1)NCc1n[nH]c(=O)c2ccccc12 | active: 56.2 µM |  |
| O=C(CNC(=O)c1ccccc1F)NC1CC1 |  | inactive: -5.36% [at 56.1 µM] |
| CCN(c1ccccc1)S(=O)(=O)c1ccc2[nH]cc(C(=O)N3CCOCC3)c(=O)c2c1 | active: 50.1 µM |  |
| Cc1ccc(-c2cc3c(n2-c2ccc(F)cc2)CC(C)(C)CC3=O)cc1 |  | inactive: 6.94% |
| COC(=O)COc1ccc(S(=O)(=O)Nc2ccc3c(c2)OCCO3)cc1Cl |  | inactive: 4.4% |
| Cc1ccc2ccc3cccc4ccc1c2c34 | active: 56.2 µM |  |
| COc1ccc(OCCOc2ccc(/C=C3\C(=N)N4N=C(C)SC4=NC3=O)cc2)cc1 | active: 35.5 µM |  |
| COC(=O)C1C(=O)C2=C(CC1C)NC(C)=C(C(=O)OCc1ccc(OC)cc1)C2c1ccc(C)o1 (configuration not stated) |  | inactive: 4.35% |
| O=C1CC[C@H](N2C(=O)c3ccccc3C2=O)C(=O)N1 | inconclusive: 15.8 µM [inhibitor, single point] |  |
| CS(=O)(=O)N1CCC(C(=O)NCc2ccco2)CC1 | inconclusive: 25.1 µM [inhibitor, single point] |  |
| COc1ccc(CCNC(=O)c2cc3c(s2)-c2ccccc2OC3)cc1OC | inconclusive: 79.4 µM [inhibitor, single point] |  |
| CC(=O)Nc1cccc(OC(=O)c2ccoc2C)c1 | inconclusive: 31.6 µM [inhibitor, single point] |  |
| COc1cc2cc(C(c3nnnn3C(C)(C)C)N3CCc4ccccc4C3)c(=O)[nH]c2cc1OC (configuration not stated) |  | inactive: 6.74% |
| CC(=O)N1CCN(S(=O)(=O)c2cccc(C(=O)OCC(=O)NC(=O)c3cccn3C)c2)CC1 | inconclusive: 89.1 µM [inhibitor, single point] |  |
| Cc1cc2nc(CCl)cc(=O)n2[nH]1 | inconclusive: 0.562 µM [inhibitor, full curve, poor fit] |  |

| SMILES | Potency | activity change, negative = inhibition |
| --- | --- | --- |
| CCC(=O)N1CCC2(CC1)Oc1ccc(F)cc1C(=O)C21CC(c2ccc(Cl)cc2)=NO1 (configuration not stated) |  | inactive: 3.55% |
| CC(=O)c1ccc(OCc2ccccc2)c(C)c1O | inconclusive: 35.5 µM [inhibitor, full curve, poor fit] |  |
| CC1CCc2cccc3c2N1c1cc(C#N)c(C#N)cc1O3 (configuration not stated) | inconclusive: 12.6 µM [inhibitor, full curve] |  |
| Cc1ccc(NC(=O)CN(C)C(=O)c2cccnc2Nc2cccc(C(F)(F)F)c2)cc1 |  | inactive: 1.14% |
| O=C(/C=C/c1ccco1)OCc1nnc(-c2ccccc2)o1 | active: 25.1 µM |  |
| CCCNC(=O)c1nn2cc(Br)cnc2c1Br | inconclusive: 28.2 µM [inhibitor, partial curve] |  |
| CCCN(CC(=O)Nc1ccccc1C)C(=O)C1CCN(C(=O)Nc2ccccc2)CC1 |  | inconclusive: -25% [inhibitor] [at 0.505 µM] |
| c1ccc(OCc2nn3c(-c4n[nH]c5c4CCC5)nnc3s2)cc1 | inconclusive: 100 µM [inhibitor, single point] |  |
| O=C(N/N=C/C1=Cc2ccccc2OC1)c1ccncc1 | inconclusive: 35.5 µM [inhibitor, single point] |  |
| O=C1c2ccccc2C(=O)c2c(O)c(O)cc(O)c21 | inconclusive: 0.316 µM [inhibitor, full curve, poor fit] |  |
| O=C(NC1CC1)c1cc(-c2ccco2)nc2ccccc12 | active: 4.47 µM |  |
| O=C(N/N=C/c1cc([N+](=O)[O-])ccc1O)c1ccc(COc2ccc3c(c2)CCC3)o1 | inconclusive: 28.2 µM [inhibitor, full curve] |  |
| O=C1c2ccccc2C(=O)N1/N=C/c1ccc(O)c(O)c1O | inconclusive: 0.631 µM [inhibitor, full curve, poor fit] |  |
| CC(=O)c1ccccc1NC(=O)COC(=O)CCC1CCCC1 | active: 79.4 µM |  |
| O=C(N=Nc1c(O)[nH]c2ccccc12)c1cccs1 | inconclusive: 79.4 µM [inhibitor, single point] |  |
| O=C(c1cc(S(=O)(=O)N2CCCC2)c(Cl)cc1Cl)N1CCCC1 | inconclusive: 89.1 µM [inhibitor, single point] |  |
| COc1cc(/C=C(/C#N)c2ccccc2F)ccc1OCc1ccccc1 |  | inactive: 2.74% |
| COc1ccc(-n2c(SCC(=O)NCC3CCCO3)nc3c([nH]c4ccccc43)c2=O)cc1 (configuration not stated) |  | inactive: -8.65% |
| CCc1ccc(C(=O)NNC(=O)OC)cc1 | inconclusive: 100 µM [inhibitor, single point] |  |
| CCOC(=O)C1CCCN(C(=O)c2cc(Nc3ccc(OC)cc3OC)nc3ccccc23)C1 (configuration not stated) |  | inactive: 10.1% |
| COc1ccc2c(c1)c(=O)oc1cc(OCC(=O)N3CCc4ccccc4C3)ccc12 | active: 12.6 µM |  |
| CCCOC1(NC(=O)c2ccccc2)C(C)=CC(=O)C=C1C |  | inactive: -0.952% |
| Cc1ccc(C(=O)COC(=O)C2C3C=CC(C3)C2C(=O)OCC(=O)c2ccc(C)c(C)c2)cc1C (configuration not stated) |  | inactive: 3.92% |
| O=C(c1ccc(=O)[nH]n1)N1CCN(S(=O)(=O)c2ccccc2F)CC1 | inconclusive: 39.8 µM [inhibitor, single point] |  |
| Cn1c(-c2ccc(C(C)(C)C)cc2)n[nH]c1=S | inconclusive: 39.8 µM [inhibitor, single point] |  |
| Nc1c(C(=O)NCC2CCCO2)sc2nc3c(c(-c4ccco4)c12)CC/C3=C\c1ccco1 (configuration not stated) | inconclusive: 0.562 µM [inhibitor, full curve, poor fit] |  |

| SMILES | Potency | activity change, negative = inhibition |
| --- | --- | --- |
| COc1ccc(-c2ccc(SCC(=O)Nc3nccs3)nn2)cc1OC | active: 79.4 µM |  |
| CCc1cc[n+](-c2nc([O-])sc2C=O)cc1 | inconclusive: 14.1 µM [inhibitor, full curve, poor fit] |  |
| CCOC(=O)N1CCC(N(CCN(C)C)C(=S)Nc2ccccc2Cl)CC1 |  | inactive: -5.26% |
| NS(=O)(=O)c1cc(C(=O)NC2CCSc3ccccc32)ccc1Cl (configuration not stated) | active: 1.26 µM |  |
| COc1ccccc1-c1cncnc1-n1ccnc1 | active: 22.4 µM |  |
| O=C(N/N=C/C(Cl)=C/c1ccc([N+](=O)[O-])cc1)C(=O)Nc1ccccc1C(=O)O | inconclusive: 39.8 µM [inhibitor, full curve] |  |
| O=C(O)C1CCN(C(=O)COc2ccc3c4c(c(=O)oc3c2)CCC4)CC1 | inconclusive: 35.5 µM [inhibitor, single point] |  |
| CCOC(=O)c1c(NC(=O)C2c3ccccc3Oc3ccccc32)sc(C(=O)N(CC)CC)c1C |  | inactive: -11.2% |
| COc1ccccc1CNCc1cccc(Oc2ccccc2)c1 |  | inactive: -8.38% |
| Brc1nc2ncnc(NCc3ccco3)c2[nH]1 |  | inactive: 1.07% |
| Oc1ccc(Cl)cc1C1C=C(c2ccc3c(c2)OCO3)NC(c2ccc(Cl)cc2)N1 (configuration not stated) |  | inactive: 2.29% |
| Nc1nc(-c2ccccc2)cc(-c2ccccc2O)n1 | inconclusive: 100 µM [inhibitor, single point] |  |
| COc1ccc(NCC(=O)Nc2ccc(Br)cc2F)c(OC)c1 |  | inactive: 5.71% |
| COc1ccc2c(c1)-c1c(ssc1=S)C(C)(C)N2S(=O)(=O)c1ccc(C)cc1 |  | inactive: 11% |
| Cc1ccc(C)c(S(=O)(=O)NCc2cccnc2)c1 |  | inactive: 0% |
| O=C(Nc1ccccc1C(=O)O)c1ccc(NC(=O)C2CC2)cc1 |  | inactive: 2.27% |
| O=C(NN=C1c2ccccc2-c2ccccc21)c1ccccc1 | active: 20 µM |  |
| CC(=O)N1Cc2ccccc2CC1C(=O)NCc1ccccc1F (configuration not stated) | inconclusive: 89.1 µM [inhibitor, single point] |  |
| COc1ccc2c(c1)-c1nc(NC(=O)c3cc(Cl)ccc3OC)sc1CC2 |  | inactive: -7.41% |
| Cc1ccc(S(=O)(=O)N2CCCCC2)cc1C(=O)Nc1cccnc1 | active: 20 µM |  |
| O=[N+]([O-])c1ccccc1S(=O)(=O)Nc1ccc(-c2ccc(N3CCOCC3)nn2)cc1 | inconclusive: 89.1 µM [inhibitor, single point] |  |
| Cc1cc(C(=O)N2CCN(c3ncccc3C#N)CC2)no1 | inconclusive: 79.4 µM [inhibitor, single point] |  |
| CCOCCCNC(=O)c1c[nH]c2ccc(S(=O)(=O)Nc3cccc(Cl)c3C)cc2c1=O | inconclusive: 35.5 µM [inhibitor, single point] |  |
| COc1ccccc1C(=O)NCC1(N2CCN(C)CC2)CCCCC1 |  | inactive: 2.6% |
| CC(C)(C)[C@@H]1COC(=O)[C@@H](NC(=O)OCC2c3ccccc3-c3ccccc32)C/C=C\C[C@@H](CC(=O)NCCO)C(=O)N1 | inconclusive: 56.2 µM [inhibitor, partial curve] |  |
